# From paper PMC3292316 (Diabetes, 2011)
# Molecular target: GST-fused PPP1R3G (mouse, UniProt Q9CW07)
# Assay: pull-down
binder,measurement,value
"His-tagged PP1c (catalytic subunit of PP1, α isoform) (enzyme) not shown",binding result,binds
